PubChem BioAssay AID588342 (National Center for Advancing Translational Sciences (NCATS), 2011)
The campaign covered roughly 360,000 compounds. About 25,000 (6.9%) were called active. The shares of active, inactive and inconclusive entries below differ from those in the screen. The call rests on the fitted dose curve; in most records, active means well fitted inhibition curve with a large enough effect; inconclusive means small, poorly fitted or top-dose-only effect; inactive means flat fitted curve, though single readings scatter. Potencies beside an inconclusive call are fits to weak or partial responses and may not hold up.

Molecular target: Luciferin 4-monooxygenase (Photinus pyralis) (UniProt P08659)
Assay: qHTS profiling assay for firefly luciferase inhibitor/activator using purifed enzyme and Km concentrations of substrates (counterscreen for miR-21 project); further: nearly all actives have a fitted effect of over 55% in size
Conditions: purified FLuc, luminescence inhibition; series mostly up to 57.5 µM
Method in brief: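 Purified P. pyralis luciferase (10nM final) with 10uM D-luciferin and 10uM ATP (Km levels) in 50mM Tris acetate pH 7.5, 10mM Mg acetate, 0.01% Tween-20, 0.05% BSA; qHTS 6-point titration, ~60 µM downward; luminescence read.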
Potency means the concentration at half of the fitted maximal effect; tags describe the fitted curve by direction and shape.

UniProt P08659, sequence (P08659 whole entry, looked up): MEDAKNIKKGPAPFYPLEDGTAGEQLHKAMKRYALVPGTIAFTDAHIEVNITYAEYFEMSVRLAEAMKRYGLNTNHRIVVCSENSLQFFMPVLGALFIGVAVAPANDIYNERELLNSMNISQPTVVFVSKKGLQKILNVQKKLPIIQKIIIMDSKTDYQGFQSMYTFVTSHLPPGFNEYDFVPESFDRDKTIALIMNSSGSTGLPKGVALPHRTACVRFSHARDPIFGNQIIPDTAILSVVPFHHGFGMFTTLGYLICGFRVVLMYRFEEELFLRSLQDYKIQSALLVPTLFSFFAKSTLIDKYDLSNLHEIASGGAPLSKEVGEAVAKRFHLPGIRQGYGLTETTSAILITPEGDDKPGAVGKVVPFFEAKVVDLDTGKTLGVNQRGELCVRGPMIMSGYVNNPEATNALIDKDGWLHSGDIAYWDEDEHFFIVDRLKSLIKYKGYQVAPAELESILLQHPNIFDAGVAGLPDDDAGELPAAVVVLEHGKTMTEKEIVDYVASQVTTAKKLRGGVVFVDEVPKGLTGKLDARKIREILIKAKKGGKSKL

Compound	Potency
O=C(COC(=O)Cc1c(Cl)cccc1Cl)Nc1ccc(OC(F)(F)F)cc1	inactive
CCCOc1cccc(-c2cc(C(=O)N/N=C/c3ccccn3)c3ccccc3n2)c1	active: 3.79 µM
C=CCn1c(SCC(=O)N(C)c2c(N)n(Cc3ccccc3)c(=O)[nH]c2=O)nnc1-c1ccccc1OC	inactive
CCOC(=O)c1ccc(NC(=O)c2c(NCc3cccs3)sc3c2CCCCC3)cc1	inconclusive: 15.1 µM [inhibitor, partial curve]
O=C(O)CC(NC(=O)c1sc2ccccc2c1Cl)c1ccc(OC2CCCC2)cc1 (stereo not given)	active: 15.1 µM
CCOC(=O)C1CCN(C(=O)Cn2nc(C)n3nc(-c4ccc(OC)cc4)cc3c2=O)CC1	inconclusive: 10.7 µM [inhibitor, partial curve]
COc1ccc(Nc2nc(N)nc(CSC(=S)N3CCCCC3C)n2)cc1 (stereo not given)	inconclusive: 21.3 µM [inhibitor, single point]
Nc1nc2sc3c(c2cc1C(=O)N1CCOCC1)CCCC3	active: 16.9 µM
Oc1ccc(-c2csc(Nc3ncccn3)n2)cc1O	active: 8.49 µM
O=C(NC(=S)Nc1ccc(Cl)cn1)c1cccs1	active: 3.01 µM
O=C(Cc1ccc(F)cc1)NCC1CCCO1 (stereo not given)	inconclusive: 16.9 µM [inhibitor, partial curve]
CC(=O)c1sc(-c2ccc(F)cc2)cc1NS(=O)(=O)c1ccc(C)cc1	inactive
O=C(COC(=O)c1cc(S(=O)(=O)N2CCOCC2)ccc1O)Nc1cc(S(=O)(=O)N2CCCC2)ccc1Cl	inconclusive: 33.8 µM [inhibitor, partial curve, poor fit]
COc1ccc(OCC2c3cc(OC)c(OC)cc3CCN2C(=O)c2ccc(F)cc2)cc1 (stereo not given)	inactive
COc1ccc(C(=O)Nc2cc(-c3cccc(C)c3)nn2-c2ccccc2)cc1	inconclusive: 12 µM [inhibitor, partial curve]
N/C(=N\OC(=O)c1ccc(OCC(F)(F)F)nc1)c1ccc(Cl)cc1	inconclusive: 4.78 µM [inhibitor, partial curve, poor fit]
CCOC(=O)c1c(C)nc2cc(C)cc(C)n12	inconclusive: 26.9 µM [inhibitor, single point]
Cc1ccc(C(=O)c2cc3ccccc3o2)cc1	active: 2.13 µM
Cc1cc(N)ccc1-c1cc2ccccc2oc1=O	inconclusive: 26.9 µM [inhibitor, single point]
CCOc1ccc(NC(=O)c2cc3c(-c4ccccc4F)nn(C)c3s2)cc1	inconclusive: 37.9 µM [inhibitor, partial curve, poor fit]
S=c1[nH]c2ccccc2n1CCOc1ccccc1	inconclusive: 21.3 µM [inhibitor, partial curve, poor fit]
O=C(ONC1=NCCCCC1)c1ccc(Cl)cc1	inconclusive: 37.9 µM [inhibitor, partial curve, poor fit]
Cc1c(/C=C/C(=O)c2ccc(O)cc2)cnn1C	active: 10.7 µM
Cc1ccc(S(=O)(=O)c2cn(C)c3cc(N4CCCCCC4)c(F)cc3c2=O)cc1	inactive

Compound	Potency
CS(=O)(=O)Nc1cccc(S(=O)(=O)N2CCN(C(=O)c3ccccc3)CC2)c1	inactive
Cc1ccc(NC(=O)CN(C)C(=O)c2cc3c(s2)CCCCC3)cc1	inactive
COc1ccc(/C=C2/S/C(=N/S(=O)(=O)Cc3ccccc3)NC2=O)cc1OC	inconclusive: 26.9 µM [inhibitor, single point]
COC(=O)c1ccc(COC(=O)c2ccc(SC)cc2OC)cc1	inconclusive: 26.9 µM [inhibitor, partial curve, poor fit]
Cc1nc(NC(=O)CC(C)C)sc1-c1csc(Nc2ccc(Cl)cc2)n1	inconclusive: 37.9 µM [inhibitor, single point]
O=C(N/N=C/c1ccc[nH]1)c1ccc(O)cc1	inconclusive: 23.9 µM [inhibitor, single point]
OC(COc1ccc2cc(Br)ccc2c1)Cn1ccnc1 (stereo not given)	inconclusive: 37.9 µM [inhibitor, partial curve, poor fit]
CN1N=C2c3ccccc3CCC2C1c1ccc(F)cc1 (stereo not given)	inconclusive: 12 µM [inhibitor, partial curve]
Cc1ccc(/C=N/N=C2/NC(=O)C(CC(=O)N3CCOCC3)S2)cc1 (stereo not given)	inconclusive: 23.9 µM [inhibitor, partial curve]
COC(=O)c1n[nH]c2ccccc12	inconclusive: 30.1 µM [inhibitor, partial curve, poor fit]
CC12CCC(=O)N1C(C(=O)Nc1ccc(S(=O)(=O)N3CCCCC3)cc1)CS2 (stereo not given)	inconclusive: 42.6 µM [inhibitor, partial curve, poor fit]
CCCCCOc1ccc(Cn2ccnc2)cc1[N+](=O)[O-]	inconclusive: 37.9 µM [inhibitor, single point]
Cc1c(NC(=O)CSc2nc(N)cc(N)n2)c(=O)n(-c2ccccc2)n1C	inactive
O=C(c1cc(-c2ccc(O)cc2)on1)N1CCc2ccccc2C1	inconclusive: 21.3 µM [inhibitor, single point]
COc1cccc(C(=O)Nc2ccc(Cl)c(-c3nc4ccccc4[nH]3)c2)c1	inconclusive: 12 µM [inhibitor, partial curve]
CCc1ccc(OCCCSc2nc(-c3ccc(C(C)(C)C)cc3)nc3cc(=O)[nH]n23)cc1	inconclusive: 37.9 µM [inhibitor, partial curve, poor fit]
Fc1ccc2c(Cl)c(-c3nnc(-c4cccs4)o3)sc2c1	active: 0.19 µM
CC(C)(C)OC(=O)N1CCC(NC(=O)c2[nH]cnc2C(=O)Nc2cccc(Cl)c2)CC1	inactive
CC1CCN(C2=NC(=O)/C(=C/c3cccc(O)c3)S2)CC1	inconclusive: 16.9 µM [inhibitor, partial curve]
Nc1nc(N)nc(-c2ccc(Cl)c(Cl)c2)n1	active: 4.78 µM
CSc1ncc(Cl)c(C(=O)Nc2ccc(S(=O)(=O)N3CCC(C)CC3)cc2)n1	inactive
CCCCc1cc(=O)oc2cc(C)c3c(C)coc3c12	inconclusive: 37.9 µM [inhibitor, partial curve, poor fit]
COc1cccc(CNC(=O)C2CCN(c3nc4ccc(Cl)cc4[nH]3)CC2)c1	inconclusive: 37.9 µM [inhibitor, partial curve, poor fit]
CC(OC(=O)CCCSc1nc2ccccc2s1)C(=O)NC(N)=O (stereo not given)	inconclusive: 30.1 µM [inhibitor, partial curve, poor fit]

Compound	Potency
CCOC(=O)c1cccc(NC(=O)c2ccc3c(c2)nnn3C2CCCC2)c1	inconclusive: 37.9 µM [inhibitor, partial curve, poor fit]
Cc1cc(C(=O)NCCc2ccc(Cl)cc2)c(C)o1	inconclusive: 26.9 µM [inhibitor, partial curve]
COc1cc(C(C(=O)NCc2ccccc2)N(C(=O)c2snc(C(N)=O)c2N)C2CCCC2)cc(OC)c1OC (stereo not given)	inactive
Cc1ccccc1NN=Nc1nc2c([nH]1)c(=O)n(C)c(=O)n2C	inconclusive: 37.9 µM [inhibitor, partial curve, poor fit]
CCCCN1CC(c2nc3ccccc3n2CCCCOc2ccc(C)cc2C)CC1=O (stereo not given)	inactive
S=C(Nc1ccc(Cl)c(Cl)c1)NC1CCCCC1	inconclusive: 23.9 µM [inhibitor, single point]
CCn1c(SCC(=O)c2cc(C)n(C)c2C)nnc1-c1ccccc1	inconclusive: 30.1 µM [inhibitor, single point]
Cc1ccc(-c2nn(-c3ccccc3)cc2C(=O)N2CCOCC2)cc1	inconclusive: 23.9 µM [inhibitor, partial curve, poor fit]
Cc1nc(-c2cccc(NC(=O)Cc3ccccc3)c2)cs1	inconclusive: 26.9 µM [inhibitor, partial curve]
COC(=O)c1sccc1NC(=O)c1ccc(OC)cc1	inconclusive: 13.5 µM [inhibitor, partial curve, poor fit]
Cc1ccc(S(=O)(=O)N2CCCCC2)cc1C(=O)NCCc1ccccc1	inconclusive: 21.3 µM [inhibitor, partial curve, poor fit]
O=C(Nc1ccccc1)c1ccc(NC(=O)c2cccs2)cc1	inactive
C=CCNC(=S)Nc1c(C(=O)OC)[nH]c2cc(OC)ccc12	inconclusive: 37.9 µM [inhibitor, partial curve, poor fit]
COc1ccccc1NC(=O)C(=O)c1cc(C)n(-c2ccccc2F)c1C	inconclusive: 8.49 µM [inhibitor, partial curve]
O=c1c2c(nc3cc(-c4cccc(F)c4)[nH]n13)CCC2	active: 6.01 µM
Cc1nc(NC(=O)CN2CCC(O)(c3ccc(F)cc3)CC2)sc1C	inconclusive: 37.9 µM [inhibitor, partial curve, poor fit]
COc1cc(C(=O)NCc2ccc(-c3nc4ccccc4o3)cc2)cc(OC)c1OC	inconclusive: 0.675 µM [inhibitor, full curve]
Cc1ccc(-c2nnc(SCC(=O)N3CCCC3)o2)cc1	active: 23.9 µM
Cc1nc(CCN2C(=O)c3ccccc3C2=O)cs1	inactive
O=C(O)CN1C(=O)/C(=C\c2cccc(OCc3ccccc3F)c2)SC1=S	active: 21.3 µM
Cc1cccnc1NC(=O)COc1ccc2oc3c(c2c1)CCCC3	inconclusive: 21.3 µM [inhibitor, single point]
COc1cccc(OC)c1C(=O)NC(=S)Nc1cc(-c2nc3ccccc3[nH]2)ccc1Cl	inconclusive: 6.75 µM [inhibitor, full curve, poor fit]
